Results: patent US20250340562A1, “CHROMANE IMAGING LIGANDS” (The General Hospital Corporation, priority 2021, published 2025)
Several values for one entry are separate records, joined by “and”; a condition that tells them apart may be missing. Identical values can stand only once.

What was measured:
mGluR2 [1] = test: PET imaging of [11C]13 in a nonhuman primate, blocking with compound 9; type: in vivo, cynomolgus monkey (Macaca fascicularis); details: 9 1.0 mg/kg iv 20 min before tracer, Logan VT
mGluR2 [2] = target: mGluR2 (Homo sapiens, UniProt Q14416); details: literature values of known NAMs; read-out: IC50 (mGluR2 NAM); cited from earlier work
[3] = arterial blood analysis of [11C]13 in a nonhuman primate
mGluR2 [4] = target: T1, mGluR2 (Mus musculus, UniProt Q14BI2); test: PET imaging of [18F]mG2N002 in Alzheimer's mouse model; type: in vivo, 3xTg-AD and control mice (129/C57BL6)
T1 construct: from tissue; host or cells: mouse brain in vivo
Protocol: FIG. 12A Distribution of [^18F]mG2N002 in the brain of 10 months old male 3xTg-AD and control mice. The images show an accumulation of [^18F]mG2N002 at the time window of 2-20 min after injection of the radioactivity (120 μCi in 0.05 ml) into the tail vein. […] Axial and sagittal views clearly show the difference between accumulation in different brain areas in AD and control mice.
FIG. 12B Preliminary studies of the binding distribution of [^18F]mG2N002 in female and male 3xTg-AD and control mice. […] Additionally, uptake in male AD mice was lower than in control.
Animal compliance, PET imaging protocol, and image analysis are the same as the ones described in Yuan, G. et al. J. Med. Chem. 2022, 65(3), 2593-2609 under the sections of “Animal Procedures” and “PET imaging studies in rats”, except the animal model (i.e., mouse) and the amount of injected radioactivity (i.e., 120 μCi in 0.05 ml for each mouse). Animal model: 10-month-old male and female 3xTg-AD and control mice (129/C57BL6).

GRM2 = GRM2 (Homo sapiens, UniProt Q14416); test: mG2N003 binding potency, protocol A (Yuan et al. J. Med. Chem. 2022)
Chain of GRM2 (Q14416 19-872, species assumed): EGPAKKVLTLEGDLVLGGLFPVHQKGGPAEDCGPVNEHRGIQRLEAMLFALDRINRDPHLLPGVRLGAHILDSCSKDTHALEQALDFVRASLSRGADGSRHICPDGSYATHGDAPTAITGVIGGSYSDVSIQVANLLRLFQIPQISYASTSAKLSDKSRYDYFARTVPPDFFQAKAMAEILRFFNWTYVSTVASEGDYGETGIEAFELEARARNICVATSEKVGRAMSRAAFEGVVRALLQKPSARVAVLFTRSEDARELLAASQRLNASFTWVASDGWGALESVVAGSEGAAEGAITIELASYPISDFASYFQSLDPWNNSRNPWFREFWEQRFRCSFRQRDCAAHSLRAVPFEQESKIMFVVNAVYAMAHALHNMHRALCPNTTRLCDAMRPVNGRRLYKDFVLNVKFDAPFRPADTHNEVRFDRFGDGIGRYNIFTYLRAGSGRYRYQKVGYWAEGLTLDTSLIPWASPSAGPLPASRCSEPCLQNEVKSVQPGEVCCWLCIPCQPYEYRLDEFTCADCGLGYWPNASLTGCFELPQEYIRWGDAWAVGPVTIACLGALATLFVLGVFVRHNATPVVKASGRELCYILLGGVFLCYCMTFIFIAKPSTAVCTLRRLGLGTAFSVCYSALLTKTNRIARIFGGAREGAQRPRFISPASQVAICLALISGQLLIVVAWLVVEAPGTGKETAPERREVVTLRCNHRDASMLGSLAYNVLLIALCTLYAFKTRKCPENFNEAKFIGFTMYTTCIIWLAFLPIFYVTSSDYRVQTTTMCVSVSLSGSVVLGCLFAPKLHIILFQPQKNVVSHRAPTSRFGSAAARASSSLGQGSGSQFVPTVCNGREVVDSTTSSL

T1 sequence (Q14BI2 19-872): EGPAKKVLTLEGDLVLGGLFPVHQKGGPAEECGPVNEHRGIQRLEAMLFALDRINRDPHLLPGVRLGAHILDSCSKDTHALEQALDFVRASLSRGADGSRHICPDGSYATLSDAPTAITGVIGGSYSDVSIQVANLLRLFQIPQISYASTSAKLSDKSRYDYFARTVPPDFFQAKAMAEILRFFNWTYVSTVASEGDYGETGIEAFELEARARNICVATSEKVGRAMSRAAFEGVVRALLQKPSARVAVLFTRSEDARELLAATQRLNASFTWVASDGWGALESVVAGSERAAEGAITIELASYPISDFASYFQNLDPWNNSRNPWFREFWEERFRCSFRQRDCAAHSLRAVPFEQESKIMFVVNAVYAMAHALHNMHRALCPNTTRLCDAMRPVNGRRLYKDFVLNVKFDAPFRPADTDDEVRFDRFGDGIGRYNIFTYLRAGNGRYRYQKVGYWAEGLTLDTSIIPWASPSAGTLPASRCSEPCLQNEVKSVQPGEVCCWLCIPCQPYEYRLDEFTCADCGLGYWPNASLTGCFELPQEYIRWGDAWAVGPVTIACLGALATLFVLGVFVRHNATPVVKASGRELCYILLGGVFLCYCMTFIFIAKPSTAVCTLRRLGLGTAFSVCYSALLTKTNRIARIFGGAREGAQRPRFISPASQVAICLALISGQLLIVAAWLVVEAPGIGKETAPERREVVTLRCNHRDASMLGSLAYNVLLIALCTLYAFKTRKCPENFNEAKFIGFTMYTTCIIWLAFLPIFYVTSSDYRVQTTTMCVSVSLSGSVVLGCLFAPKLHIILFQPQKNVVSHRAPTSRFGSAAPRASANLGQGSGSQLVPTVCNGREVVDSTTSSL
Chain of mGluR2 (Homo sapiens, UniProt Q14416) (Q14416 19-872): as the sequence (Q14416 19-872, species assumed) above

With `Cn1ccc(COc2cnc(C(N)=O)cc2-c2ccc(F)cc2)n1` [VU6001966] the “decrease of VT estimates, cerebellum gray” value (mGluR2 [1]; 120 min, t* 30 min) was 16.8%, the “decrease of VT estimates, occipital gyrus” value (mGluR2 [1]; 120 min, t* 30 min) was 3.2% and the “decrease of VT estimates, average in the whole brain” value (mGluR2 [1]; listed as 9, 1 mg/kg) was 14.1% and 14%. For the same compound, the IC50 (mGluR2 [2]) was 0.078 µM.

In the case of `CC1(C)CCc2c(-c3ccc(O[11CH3])cc3F)cc(C(N)=O)nc2O1` [[^11C]13, 5-(2-fluoro-4-[^11C]methoxyphenyl)-2,2-dimethyl-3,4-dihydro-2H-pyrano[2,3-b]pyridine-7-carboxamide], the “percent parent (% PP) in plasma” value ([3]; at 30 min) is reported as 53±5.3%, the “plasma-free fraction (fp)” value ([3]; baseline condition) is reported as 0.131±0.006 and the “plasma-free fraction (fp)” value ([3]; blocking study) is reported as 0.099±0.011.

In the case of `COc1ccc(-c2cc(Cl)nc3c2CC(C)(C)CO3)c(F)c1` [[^11C]MG-1904], the IC50 (mGluR2 [2]) is listed as 0.024 µM.

For `CC1(C)CCc2c(-c3ccc([18F])cc3F)cc(C(N)=O)nc2O1` [[^18F]mG2N002, S-(2-fluoro-4-[^18F]fluorophenyl)-2,2-dimethyl-3,4-dihydro-2H-pyrano[2,3-b]pyridine-7-carboxamide], the “accumulation in brain of AD versus control mice” value (mGluR2 [4]; 10 months old male 3xTg-AD vs control, 2-20 min) was “lower accumulation of [^18F]mG2N002 in AD mouse compared to the control mouse” and the “binding distribution in female and male AD and control mice” value (mGluR2 [4]; preliminary studies, all brain areas) was “lower in female AD mice than in female control or male AD mice”.

With `COc1ccc(-c2cc(C(N)=O)nc3c2CC(C)(C)CO3)c(F)c1` [mG2N003, 5-(2-Fluoro-4-methoxyphenyl)-3,3-dimethyl-3,4-dihydro-2H-pyrano[2,3-b]pyridine-7-carboxamide] the IC50 (GRM2) was 0.578 µM and the “decrease in potency toward GRM2 relative to compound 2-7” value (GRM2; p-F replaced by methoxy) was over 20 ×.
